Assay results from PubChem BioAssay AID894 (National Center for Advancing Translational Sciences (NCATS), 2007).
Screen size: about 150,000 compounds; about 6,500 (4.3%) were called active. This list was built around the results that the source calls inconclusive (neither active nor inactive); the mix of calls is not that of the screen. Calls follow the shape of the dose curve; as a rule, active = well fitted inhibition curve with a large enough effect (not every such curve was filed as active); inconclusive = small, poorly fitted or top-dose-only effect, or another doubt; inactive = no such curve, though single readings can be large or run the other way. Potencies of inconclusive entries are left out as doubtful fits.

Target: 15-hydroxyprostaglandin dehydrogenase [NAD(+)] (Homo sapiens) (UniProt P15428)
Test: qHTS Assay for Inhibitors of HPGD (15-Hydroxyprostaglandin Dehydrogenase)
Settings: purified HPGD, NADH fluorescence kinetic, PGE2 substrate; activity change, negative = inhibition: active compounds read low
In short: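 20 nM HPGD preincubated 15 min at room temperature with compound in 50 mM Tris-HCl pH 8, 0.01% Tween 20. Started with 1 mM NAD+ and 30 uM prostaglandin E2; NADH fluorescence (360/450 nm) read 5 times over 30-s intervals, last minus first.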
% is scaled to controls: 0 for no effect and ±100 for the full control effect; potency is read from the fitted curve at half-maximal effect; tags tell the direction and shape of the fitted curve.

Sequence of UniProt P15428 (P15428 whole entry, looked up): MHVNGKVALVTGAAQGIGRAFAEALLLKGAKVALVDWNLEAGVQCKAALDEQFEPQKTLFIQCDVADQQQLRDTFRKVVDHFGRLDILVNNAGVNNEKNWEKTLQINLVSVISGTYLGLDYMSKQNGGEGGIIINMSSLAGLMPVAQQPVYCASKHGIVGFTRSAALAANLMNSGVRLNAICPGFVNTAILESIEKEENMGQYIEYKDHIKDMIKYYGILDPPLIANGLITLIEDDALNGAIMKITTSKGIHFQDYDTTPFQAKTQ

Q: For `CCOC(=O)C1C(=O)NC(c2ccccc2)=NC1c1ccc(Cl)cc1` (stereo not given), which activity change, negative = inhibition is on record?
A: inactive: -15%

Q: With `CCC(C(=O)O)N1C(=O)/C(=C/c2cccn2C)SC1=S` (stereo not given) as the compound, how does the Potency read?
A: inconclusive [inhibitor, partial curve]

Q: `CCN(CC)c1ccc(C2C(C(=O)OC)=C(C)NC(C)=C2C(=O)OC)cc1` was tested. Which Potency did it give?
A: inconclusive [inhibitor, partial curve]

Q: For `CCOC(=O)C1CCN(C(=O)/C=C/c2cc(OC)c(OC)c(OC)c2)CC1`, which Potency is on record?
A: inconclusive [inhibitor, partial curve]

Q: How did the Potency turn out when `O=C(CSc1ccccn1)Nc1ccccc1F` was run?
A: active: 17.8 µM

Q: Which Potency does the source give for `CC(=O)CCC(=O)c1ccc2ccccc2c1` here?
A: inconclusive [inhibitor, partial curve]

Q: How did the Potency turn out when `Cc1ccc(-n2[nH]c(C)c(/C=N/n3c(C)nc4ccccc4c3=O)c2=O)cc1` was run?
A: inconclusive [inhibitor, partial curve]

Q: With `COCCn1c(=O)[nH]c(=O)c2cc(C(=O)c3cc(OC)ccc3O)cnc21` as the compound, how does the Potency read?
A: active: 25.1 µM

Q: How did the Potency turn out when `Cc1nc2c(C(=O)N3CCCCC3)cnn2c(C)c1Cc1ccccc1F` was run?
A: inconclusive [inhibitor, partial curve]

Q: For `Clc1ccc(Cc2nnc(-c3ccccc3Br)o2)cc1`, which Potency is on record?
A: active: 20 µM

Q: Which Potency does the source give for `N#CCCn1c(=O)c(-c2cccs2)nc2cnc(N3CCNCC3)nc21` here?
A: inconclusive [inhibitor, partial curve]

Q: For `N/C(Cc1cccs1)=N\OC(=O)COc1ccc(Cl)cc1Cl`, which activity change, negative = inhibition is on record?
A: inactive: -17.1%

Q: With `CCOC(=O)Cn1nnnc1CN(Cc1ccc(OC)cc1)Cc1cc2cc(C)ccc2[nH]c1=O` as the compound, how does the activity change, negative = inhibition read?
A: inactive: -4.97%

Q: How did the Potency turn out when `COC(=O)c1ccccc1NC(=O)CN(C)S(=O)(=O)c1ccc(OC)c(C)c1` was run?
A: inconclusive [inhibitor, partial curve]

Q: `S=C(NCc1ccco1)Nc1ccc(Cl)c(Cl)c1` was tested. Which Potency did it give?
A: active: 3.16 µM

Q: Which Potency does the source give for `O=C(c1ccc2c(c1)OCO2)N1CCCCC1` here?
A: active: 0.1 µM

Q: How did the Potency turn out when `Cc1ccc2c(CC(=O)OCc3cc(=O)n4c(n3)sc3ccccc34)coc2c1` was run?
A: inconclusive [inhibitor, single point]

Q: How did the activity change, negative = inhibition turn out when `CC(C)(C)NC(=O)COC(=O)c1nsc(Cl)c1Cl` was run?
A: inactive: -7.03%

Q: With `O=C1CC(c2cccs2)Sc2nc3ccccc3n21` (stereo not given) as the compound, how does the Potency read?
A: inconclusive [inhibitor, single point]

Q: With `O=C(CCSCc1ccccc1Cl)N1CCN(c2ccccn2)CC1` as the compound, how does the activity change, negative = inhibition read?
A: inactive: -14.8%

Q: `Cc1ccccc1Nc1ncnc2c1cnn2-c1ccccc1` was tested. Which activity change, negative = inhibition did it give?
A: inactive: -28.9%

Q: How did the Potency turn out when `COc1ccc2[nH]c(=O)c(CN(C)C(=O)C3CCCCC3)cc2c1` was run?
A: inconclusive [inhibitor, partial curve]

Q: With `O=C(c1ccc2ccccc2n1)N1CCN(c2ccccc2O)CC1` as the compound, how does the activity change, negative = inhibition read?
A: inactive: -23.2%

Q: For `CC1CCCC(NC(=O)CSc2nnnn2C)C1C` (stereo not given), which Potency is on record?
A: inconclusive [inhibitor, partial curve]

Q: For `CC(C)(SCc1ccccc1)[C@H](N)C(=O)O`, which activity change, negative = inhibition is on record?
A: inactive: 1.95%

Q: `CCC(Sc1nc2c(c(=O)n1CC)SC(C)C2)C(=O)OC` (stereo not given) was tested. Which activity change, negative = inhibition did it give?
A: inactive: -11.5%

Q: For `O=C1C(N2CCOCC2)=C(n2nnc3ccccc32)C(=O)c2ccccc21`, which Potency is on record?
A: inconclusive [inhibitor, partial curve]

Q: How did the activity change, negative = inhibition turn out when `CC(C)NC(=O)c1ccc2c(c1)N(CC(=O)N1CCOCC1)C(=O)C(C)(C)O2` was run?
A: inactive: 1.25%

Q: For `N#Cc1c(-c2ccccc2F)cc(-c2cccnc2)nc1N`, which Potency is on record?
A: inconclusive [inhibitor, partial curve]

Q: `COc1ccc(C2=C(CC(=O)O)C(=O)CC2)cc1` was tested. Which Potency did it give?
A: inconclusive [inhibitor, partial curve]

Q: `O=C(CCc1ccccc1)c1ccc2c(c1)OCCCO2` was tested. Which Potency did it give?
A: inconclusive [inhibitor, single point]

Q: Which Potency does the source give for `CCOc1ccc(S(=O)(=O)NCC2CCCO2)c2cccnc12` (stereo not given) here?
A: inconclusive [inhibitor, partial curve]

Q: `CCCN1C(=O)C(NC(=O)c2ccncc2)(C(F)(F)F)C2=C1CC(C)(C)CC2=O` (stereo not given) was tested. Which activity change, negative = inhibition did it give?
A: inactive: -14%

Q: With `C=CCc1c(C)nc(SCC(=C)C)[nH]c1=O` as the compound, how does the Potency read?
A: inconclusive [inhibitor, partial curve]

Q: Which activity change, negative = inhibition does the source give for `COc1cc(OC)cc(C(=O)NC(=S)Nc2ccc(Cl)c(C(=O)O)c2)c1` here?
A: inactive: -9.91%

Q: With `CC(C)OC(=S)N/C(=N\S(=O)(=O)c1ccccc1)c1ccccc1` as the compound, how does the Potency read?
A: inconclusive [inhibitor, single point]

Q: For `CC(C)(C)C(=O)[C@@H]1[C@@H]2C(=O)N(c3ccc4c(c3)OCCO4)C(=O)[C@@H]2C2c3ccccc3C=CN21` (stereo not given in full), which Potency is on record?
A: inconclusive [inhibitor, single point]

Q: For `CCCCCCN1C=CC=C/C1=C/C=C(C#N)C#N`, which Potency is on record?
A: active: 11.2 µM

Q: `Cc1ccsc1C(=O)Nc1ccc2c(c1)OCCO2` was tested. Which Potency did it give?
A: active: 31.6 µM

Q: How did the activity change, negative = inhibition turn out when `COC(=O)c1ccc(NC(=O)CSC2=NCCN2)cc1` was run?
A: inactive: -7.17%

Q: For `Cc1ccc(-n2[nH]c(=O)c3cccnc32)cc1`, which Potency is on record?
A: active: 15.8 µM

Q: How did the activity change, negative = inhibition turn out when `NC(=NCCc1ccccc1)NS(=O)(=O)c1ccccc1` was run?
A: inactive: -3.2%

Q: For `CCOC(=O)c1c(C)oc2c1c(C(c1cccnc1)N1CCOCC1)c(O)c1ccccc12` (stereo not given), which Potency is on record?
A: active: 22.4 µM

Q: For `Cc1sc(NC(=S)NC(=O)C2CCCCC2)c(C(N)=O)c1C`, which activity change, negative = inhibition is on record?
A: inactive: -28.2%

Q: Which activity change, negative = inhibition does the source give for `COC(=O)C1=C(N)OC2=C(C(=O)CC(C)(C)C2)C1c1cccnc1` (stereo not given) here?
A: inactive: 2.13%

Q: With `Cc1cc(=O)[nH]c(S/C=C/c2ccccc2)n1` as the compound, how does the Potency read?
A: active: 20 µM

Q: `Cc1cc(=O)oc2cc(NC(=O)C3CC(=O)N(Cc4ccccc4)C3)ccc12` (stereo not given) was tested. Which Potency did it give?
A: inconclusive [inhibitor, partial curve]

Q: `COc1ccc2c(c1)C1(C)CC(C)(C)N2C(=O)N1c1ccccc1` (stereo not given) was tested. Which Potency did it give?
A: inconclusive [inhibitor, partial curve]

Q: `O=C(NCCSc1ccccc1)c1ccc(Br)cc1` was tested. Which activity change, negative = inhibition did it give?
A: inactive: -15%

Q: With `O=C(O/N=C/c1ccc2c(c1)OCO2)c1ccccc1Cl` as the compound, how does the Potency read?
A: inconclusive [inhibitor, partial curve]
